# Experimental data reported in PubChem BioAssay AID463173 (ICCB-Longwood Screening Facility, Harvard Medical School, 2010).
# Out of some 52,000 compounds screened, about 4,300 (8.3%) were called active. No stated cut-off is given here; in the data, active means survival mostly below about 52% (no sharp cut-off); inactive means mostly above about 56%. The list shows a part of the results.
# Tested on: DeltatarO mutant
# Assay: growth inhibition of S. aureus wild type versus tarO mutant, primary screen, teichoic acid synthesis inhibitors, RN4220, OD600 (AID 463173)
# Conditions: OD600, 18 h, hits give low values, screened at 18.75 µg/mL (by protocol)
row,Structure (SMILES),survival
1,COc1cc(-c2nnc(SCC(=O)Nc3ccc(F)c(Cl)c3)o2)cc(OC)c1OC,inactive: 110%
2,CCCNC(=O)C1CCN(S(=O)(=O)c2ccc3c(c2)CCCN3C(C)=O)CC1,inactive: 120%
3,CC1CC(C)CN(c2nc3c(c(=O)[nH]c(=O)n3C)n2Cc2ccccc2F)C1 (stereo not drawn),inactive: 97%
4,Cc1cc2nc(-c3cc(NC(=O)c4cc5ccccc5o4)ccc3Cl)oc2cc1C,inactive: 50%
5,COc1cccc(C(=O)Nc2ccccc2OCc2cc(=O)n3cc(C)ccc3n2)c1,inactive: 95%
6,CCc1ccc(NC(=O)CSc2nc3n[nH]c(C)c3c(=N)n2-c2ccccc2C)cc1,inactive: 92%
7,Cc1oc(-c2ccc(Cl)cc2)nc1CS(=O)CC(=O)NCc1ccc(Cl)cc1 (stereo not drawn),inactive: 63%
8,CCCCOc1ccc(CNC(=O)C2CCN(c3nnc(-n4cccc4CNc4ccc(C)cc4)s3)CC2)cc1,inactive: 76%
9,CC(C)NC(=O)CSc1nc2ccccc2n1CC(=O)N1CCOCC1,inactive: 83%
10,COc1ccc2c(c1)CCc1c(C(=O)Nc3cc(C)ccc3O)noc1-2,inactive: 74%
11,Cc1ccc(-c2nc3cc(C(C)C)ccc3o2)cc1NC(=O)c1cccs1,inactive: 57%
12,COc1cc(Cn2c(=O)sc3ccccc32)ccc1OC(C)C,active: 40%
13,COCCn1c(C)cc(O)c(C(c2ccccc2)N2CCN(C)CC2)c1=O (stereo not drawn),inactive: 95%
14,CC12CCCCN1CCCc1c2[nH]c2ccccc12 (stereo not drawn),inactive: 86%
15,COC(=O)c1cccc(Nc2c(-c3ccc(O)c(OC)c3)nc3nc[nH]n23)c1,inactive: 92%
16,CCOc1ccc(-c2c(C)nn3c(C)c(C(=O)Nc4ccccc4C(=O)OC)cnc23)cc1OCC,active: -4%
17,COCc1cc(C)nc2sc3c(c12)NC(c1ccc(O)cc1)N(c1ccc(OC)cc1)C3=O (stereo not drawn),inactive: 76%
18,CCOc1ccc(NC(=O)C2Cc3ccccc3N2C(=O)c2ccccc2)cc1 (stereo not drawn),inactive: 67%
19,CCOc1ccc2[nH]c(=O)c(CN(Cc3cccnc3)S(=O)(=O)c3ccccc3)cc2c1,inactive: 86%
20,CCOc1ccc(-c2nnc(SCC(=O)NCCC(C)C)nc2-c2ccc(OCC)c(OC)c2)cc1OC,inactive: 94%
21,Cc1cn2c(=O)c(S(=O)(=O)NCCc3ccccc3)c(C)nc2s1,inactive: 99%
22,CC(C)CN1CCc2nc(N3CCN(c4ncccn4)CC3)ncc2C1,inactive: 72%

row,Structure (SMILES),survival
1,COc1cccc(C(=O)NCC(c2ccc(N(C)C)cc2)N2CCCC2)c1OC (stereo not drawn),inactive: 94%
2,Nc1ccc(S(=O)(=O)NCc2ccncc2)cc1,inactive: 85%
3,COc1ccc(CNC(=O)Cc2csc3ccccc23)cc1OC,inactive: 82%
4,COc1cccc(NC(=O)CCNS(=O)(=O)c2ccc(Br)s2)c1,active: 37%
5,CC1=CC(C)C2C(=O)N(c3ccccc3)C(=O)C2C1 (stereo not drawn),inactive: 70%
6,CC(NC(=O)c1cc(Sc2ccc(F)cc2F)nc2ccccc12)c1ccccc1 (stereo not drawn),inactive: 69%
7,Cc1cccc(NC(=O)N2CCc3c(sc4c3CCCC4)C2c2ccc(F)cc2)c1 (stereo not drawn),active: 37%
8,COc1cccc(-n2c(=O)c3c(C)c(C(=O)N(C)C)sc3n(CC(=O)NCCc3ccc(OC)c(OC)c3)c2=O)c1,inactive: 69%
9,COc1ccc(-c2nc(C)c(CCNC(=O)Cc3ccc(F)cc3)s2)cc1OC,inactive: 83%
10,CCc1ccc(NC(=O)C2CCN(C(=O)N3CC(CC)Oc4ccccc43)CC2)cc1 (stereo not drawn),inactive: 58%
11,CCc1ccc(NC(=O)CSc2nc3nccnc3c(=O)n2CCc2c[nH]c3ccccc23)cc1,inactive: 88%
12,COc1ccc2nc(SCC(=O)c3c(C)[nH]c4ccccc34)nc(C)c2c1,inactive: 86%
13,CCOc1ccc(OCC)c(NC(=O)C2CCN(S(=O)(=O)c3ccc(Br)s3)CC2)c1,inactive: 80%
14,COc1ccccc1CNCC(=O)Nc1cc(C)on1,inactive: 93%
15,Cc1ccc(N2CCN(C(=O)Cc3c(C(=O)O)c(C)cn3C)CC2)c(C)c1,inactive: 81%
16,Cc1ccc(S(=O)(=O)c2nnn3c2nc(N2CCN(c4ccc(F)cc4)CC2)c2cc(Cl)ccc23)cc1C,inactive: 99%
17,O=C(Nc1ccc(F)cc1)[C@H](CSCc1ccccc1)N1Cc2ccccc2C1=O,inactive: 61%
18,O=C(COc1ccc(S(=O)(=O)NC2CCCCC2)cc1)Nc1ccc(C(F)(F)F)cc1,inactive: 64%
19,CC1(C(=O)C[n+]2cccc(C(N)=O)c2)CCC(=O)O1 (stereo not drawn),inactive: 92%
20,Cc1cc(N2CCCCC2)nc2ccc(NC(=O)/C=C/c3ccccc3OC(C)C)cc12,inactive: 73%
21,Cc1ccc(CNC(=O)CSCc2ccc(F)cc2)cc1,inactive: 103%
22,O=S(=O)(c1ccccc1)n1nc(-c2ccccc2)nc1NCc1ccc(Cl)cc1,inactive: 76%

row,Structure (SMILES),survival
1,CCOc1ccc(N(CC)S(=O)(=O)N2CCCC(C(=O)NCc3ccccc3Cl)C2)cc1 (stereo not drawn),inactive: 67%
2,CCOc1cccc(CC(=O)N2CCc3c([nH]c4ccccc34)C2c2ccc(F)cc2)c1OCC (stereo not drawn),inactive: 66%
3,CC(=O)Nc1ccc(NC(=O)CCNS(=O)(=O)c2cccc3nsnc23)cc1,inactive: 65%
4,COc1cccc(NC(=O)Cn2cc(S(=O)(=O)N3CCCC3)c(S(=O)(=O)N3CCCC3)c2)c1,inactive: 80%
5,CCOc1ccccc1CNC(=O)c1cc2cc(S(=O)(=O)N3CCCCC3)ccc2n1C,inactive: 101%
6,Cc1ccccc1CNC(=O)Cn1ncn2nc(-c3cccs3)cc2c1=O,inactive: 106%
7,CCc1ccc2oc(-c3cccc(NC(=O)c4ccc(N5CCC(C)CC5)c([N+](=O)[O-])c4)c3)nc2c1,inactive: 67%
8,Cc1cccc(CSc2cn(CC(=O)N3CCCC3)c3ccccc23)c1,inactive: 47%
9,CCC(Oc1ccccc1)C(=O)Nc1ccc2oc(-c3ccc(OC)cc3)nc2c1 (stereo not drawn),inactive: 111%
10,Cn1c(=O)cc(OCCCC(=O)Nc2ccc(F)cc2)c2ccccc21,inactive: 128%
11,CCCN(CCC)CCCNC(=O)C1CCCN(S(=O)(=O)c2cccc3nsnc23)C1 (stereo not drawn),inactive: 101%
12,Cc1ccccc1-c1nc(CS(=O)(=O)CC(=O)N2CCN(c3ccccc3)CC2)c(C)o1,inactive: 65%
13,CCOc1ccc(CC(=O)Nc2c(C(=O)c3ccc(C)cc3)oc3ccccc23)cc1OCC,inactive: 52%
14,CCC(=O)N1CCc2cc(Br)cc(S(=O)(=O)N3CCCC(C(=O)Nc4cccc(Cl)c4C)C3)c21 (stereo not drawn),inactive: 67%
15,CCCCNC(=O)CCn1c(=O)c2ccccc2n(Cc2ccccc2C#N)c1=O,inactive: 86%
16,Cc1ccc(C(=O)COC(=O)C(CC(C)C)NC(=O)C2CCC(C)CC2)cc1 (stereo not drawn),inactive: 66%
17,CCc1ccccc1NC(=O)c1ccc2nc(CCc3ccccc3)oc2c1,inactive: 99%
18,COc1cc(C2N=C(N)Nc3nc4ccccc4n32)ccc1OCCC(C)C (stereo not drawn),inactive: 68%
19,CC(=O)c1cccc(NC(=O)C2CCCN(c3nnc(-n4cccc4)s3)C2)c1 (stereo not drawn),inactive: 79%
20,COc1cccc(C(=O)Nc2cc(-c3ccccc3)no2)c1,inactive: 57%
21,CC(C)CC(=O)Nc1ccc(C(=O)OCc2cc(=O)n3nc(C(C)C)sc3n2)cc1,inactive: 90%
22,COc1ccc(/C=C/c2nc(C#N)c(NCCc3ccc(OC)c(OC)c3)o2)cc1OC,inactive: 95%

row,Structure (SMILES),survival
1,COc1ccc(C(=O)N2CC(=O)Nc3ccc(F)cc3C2c2ccc(F)cc2)c(OC)c1 (stereo not drawn),inactive: 58%
2,CCC1CCc2nc3sc(C(=O)Nc4ccc(F)cc4F)c(N)c3cc2C1 (stereo not drawn),inactive: 78%
3,CCOC(=O)c1cc(C)n(CC2CCC(C(=O)Nc3ccc(Cl)cc3)CC2)c1C (stereo not drawn),active: 46%
4,CCOc1ccc(CCNC(=O)Cn2nnc(-c3ccccc3)n2)cc1OCC,inactive: 71%
5,CC(=O)Nc1cccc(C(=O)NCc2ccc3c(c2)CCN3C(=O)c2ccccc2)c1,inactive: 67%
6,CCC(C)C(=O)N1CCCC(c2nc(-c3cccs3)no2)C1 (stereo not drawn),inactive: 108%
7,COc1cc(NS(=O)(=O)c2ccc(NC(=O)c3ccccc3C(=O)O)cc2)nc(OC)n1,inactive: 58%
8,CCCCNC(=O)CSc1nc2nc(C)c(Cc3ccccc3C)c(C)n2n1,active: 39%
9,COc1cc(OC)c(NC(=O)NC(C)c2c(-n3cccc3)sc(C)c2C)cc1Cl (stereo not drawn),inactive: 121%
10,Cc1ccc2cccc(NC(=O)c3ccc(-c4cccc([N+](=O)[O-])c4)o3)c2n1,inactive: 67%
11,O=C(Nc1cccc(C(=O)N2CCN(c3ccc(Cl)cc3)CC2)c1)c1nsc2ccccc12,inactive: 120%
12,CCCCc1nnc(SCc2cc(=O)c3cc(C(=O)OCC)ccc3[nH]2)n1C,inactive: 71%
13,O=C(NCc1cccnc1)C1CCN(Cc2cc3ccccc3n2Cc2cccc(Cl)c2)CC1,inactive: 73%
14,CS(=O)(=O)Nc1ccc2c(c1)OCO2,inactive: 75%
15,CC(C)CC(NS(=O)(=O)c1ccc2c(c1)oc(=O)n2C)C(=O)NCCc1ccc(Cl)cc1 (stereo not drawn),inactive: 84%
16,COC(=O)c1ccc(NC(=O)c2cc(S(=O)(=O)N3CCc4ccccc43)cn2C)cc1,inactive: 82%
17,Cc1ccc(NC(=O)c2oc3ccccc3c2NC(=O)c2cc3ccccc3o2)cc1,inactive: 94%
18,O=C(CSc1cn(CCNC(=O)c2c(F)cccc2F)c2ccccc12)Nc1ccc2c(c1)OCCO2,inactive: 83%
19,CCOc1ccccc1NC(=O)Cn1cnc2onc(-c3ccc(F)cc3)c2c1=O,inactive: 87%
20,O=C(OCc1cc(=O)n2nc(C3CC3)sc2n1)c1ccc(F)cc1,inactive: 89%
21,Cc1cc(C)cc(NS(=O)(=O)c2ccc3[nH]cc(C(=O)N4CCCC4)c(=O)c3c2)c1,inactive: 90%
22,COc1ccc(-n2c(=O)c3ccc(C(=O)NCc4ccc(C)cc4)cc3n(CC(=O)Nc3ccc(F)cc3)c2=O)cc1,inactive: 66%
